# Measurements reported in the BET-seq Pho4 binding data (Le et al. 2018).
# Some of the results follow. These are noisy estimates, calculated here from bound and input reads.
# Target: T1, Pho4 (S. cerevisiae) (UniProt P07270)
# T1 sequence: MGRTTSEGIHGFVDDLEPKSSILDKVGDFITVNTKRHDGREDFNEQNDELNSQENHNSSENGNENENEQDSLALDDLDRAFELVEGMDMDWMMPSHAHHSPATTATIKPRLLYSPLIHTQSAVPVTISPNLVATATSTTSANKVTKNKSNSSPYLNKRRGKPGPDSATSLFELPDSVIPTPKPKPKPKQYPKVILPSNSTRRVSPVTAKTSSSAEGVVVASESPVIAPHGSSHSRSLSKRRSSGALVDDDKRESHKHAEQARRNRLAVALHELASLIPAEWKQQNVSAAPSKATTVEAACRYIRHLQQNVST
# Assay: relative binding free energy (BET-seq); higher = weaker binding
# Details: reference: library average
row,Sequence,relative binding free energy [kcal/mol]
1,CGATGCACGTGGGCTG,-0.12
2,TGGGGCACGTGAATTT,0.28
3,TAGAACACGTGAGTAT,0.33
4,TGCTGCACGTGGGGAT,-0.16
5,TTTGTCACGTGGGTTT,0.08
6,CGAAGCACGTGGTTTT,0.05
7,TCTGGCACGTGTTGTA,-0.16
8,TCTTTCACGTGTCTTT,0.21
9,TTGAACACGTGGTATA,0.03
10,GAGAGCACGTGGAGTG,0.11
11,AGAGTCACGTGGTGTA,-0.02
12,ATTCGCACGTGTTGTA,0
13,AGTGTCACGTGTGACT,0.07
14,TGGGACACGTGCGGTG,-0.12
15,AGTCACACGTGGGATG,-0.05
16,TTTACCACGTGTTGGT,-0.02
17,GGGGGCACGTGGAGCC,-0.19
18,GATTTCACGTGGAAGT,0.47
19,ATAAGCACGTGGGTAT,-0.26
20,TAAAACACGTGGGGGT,-0.19
21,AGTGGCACGTGTAGCG,-0.04
22,TGTTTCACGTGGGATT,0.23
23,TATTACACGTGTCTTG,0.04
24,GTTGACACGTGTTTGG,0.09
25,GGAGACACGTGGATGT,0.01
26,TTCTGCACGTGGATGT,-0.03

row,Sequence,relative binding free energy [kcal/mol]
1,ATGTTCACGTGCTAGG,0.18
2,TGGTACACGTGGATGA,0.04
3,ATTTGCACGTGGGTCA,-0.11
4,TATTGCACGTGGCTGA,-0.14
5,AGGGTCACGTGTGGTG,0.15
6,CGGGCCACGTGGTTGG,-0.11
7,TAAGGCACGTGGTCAT,-0.18
8,TGTGGCACGTGACTGG,-0.04
9,CTAGTCACGTGTCGGG,0.1
10,GTAGACACGTGGGCTT,-0.24
11,GTGCGCACGTGCGAGG,-0.07
12,CGGTACACGTGGAAGT,0.13
13,GTATTCACGTGGTATG,0.26
14,AGTGGCACGTGTATAA,-0.2
15,AAGTACACGTGGTATA,-0.04
16,GAGAGCACGTGTGGGT,-0.05
17,CATAACACGTGGGGTG,-0.18
18,GTCTGCACGTGTCGGT,0.17
19,TGTCTCACGTGTGGGT,0.23
20,GAAATCACGTGGGGTG,0.13
21,GTTATCACGTGCTAGG,0.01
22,AATCACACGTGTATGG,0.11
23,TCGCGCACGTGTGTTT,0.02
24,ATGGACACGTGGATTA,0.12
25,ATTTTCACGTGTAATA,0.23
26,TGTTGCACGTGTAGGG,-0.01

row,Sequence,relative binding free energy [kcal/mol]
1,CGCAGCACGTGAGGGA,0.24
2,GGTTACACGTGATGTT,0.27
3,ATGTCCACGTGGTCGG,-0.15
4,ATAAGCACGTGTAAGG,-0.03
5,GGACTCACGTGGGGAT,0.1
6,TTGTTCACGTGACAGT,0.42
7,AGGTTCACGTGTCAAT,0.22
8,TCAGGCACGTGGGCAT,-0.21
9,TAATTCACGTGGATGG,0.19
10,ATTACCACGTGTAGGT,0.15
11,AGGTTCACGTGATAGA,0.36
12,GGAGTCACGTGTTAAA,0.23
13,CTTATCACGTGTGTGC,0.06
14,TAGTTCACGTGCGAGG,0.32
15,TATCGCACGTGGGTTA,-0.27
16,TAAGTCACGTGATGTC,0.31
17,GGGTTCACGTGAATCG,0.34
18,TTGTGCACGTGTCGAG,0.04
19,GGTCACACGTGTGGGT,0.13
20,GATAACACGTGAAGTG,0.25
21,GTACGCACGTGTAGTT,0.05
22,AGACACACGTGTGGGG,0.04
23,TATTGCACGTGAAGTG,0.18
24,GTTTGCACGTGGGGCA,-0.06
25,CTGGACACGTGTAGTG,-0.1
26,TGCGACACGTGTGTGA,0.12

row,Sequence,relative binding free energy [kcal/mol]
1,AAGTGCACGTGGTTCG,0.01
2,GGGGTCACGTGGCGAA,0.17
3,TTGGACACGTGAGCGA,0.24
4,ATTAACACGTGTTCAG,0.09
5,ATGGACACGTGTGCGG,0.03
6,GTTTGCACGTGTGACA,0.07
7,ATGGCCACGTGGGGCT,-0.17
8,TGTTTCACGTGGGCTA,0.09
9,AAGGGCACGTGTTTAG,-0.07
10,CTGTGCACGTGGAGGA,-0.08
11,GTGTCCACGTGGCTGG,-0.07
12,ATAACCACGTGTGTGT,0.03
13,TTAGGCACGTGGTGAA,-0.34
14,TAGATCACGTGTGATT,0.15
15,GCGTGCACGTGAGGGT,0.18
16,AGAGTCACGTGCGGGG,0.08
17,TCGTTCACGTGCGAGG,0.35
18,CAGGGCACGTGTTAGT,-0.23
19,GTTGGCACGTGCTTTG,-0.21
20,GAGGTCACGTGGTCAT,0.05
21,TGTTGCACGTGAGAGC,0.26
22,CAATGCACGTGGGTTA,-0.15
23,TAGATCACGTGCTGGG,0.27
24,GGGGCCACGTGGTAGT,-0.03
25,TTAGGCACGTGGAGGT,-0.05
26,GAGGGCACGTGGGCGT,-0.14

row,Sequence,relative binding free energy [kcal/mol]
1,AGGGGCACGTGCTGGC,-0.05
2,TGATTCACGTGGGTAC,0.07
3,ATGTGCACGTGAGGCA,0.17
4,TTGTGCACGTGTTTGT,0.02
5,TTTTCCACGTGGGTTC,0.07
6,CGCGACACGTGGTGGG,-0.03
7,AGTGGCACGTGGGCCG,-0.31
8,TATAGCACGTGATTGA,0.1
9,ATTTTCACGTGGCGGT,0.22
10,AGGCTCACGTGGAGGG,0.09
11,GAGGACACGTGTTAGT,0.21
12,TAATTCACGTGCGTGT,0.23
13,TGTGTCACGTGGTCAA,-0.11
14,AGGGTCACGTGATTGG,0.22
15,TAGATCACGTGTATAT,0.21
16,ATGTGCACGTGAATGT,0.12
17,TCGTCCACGTGATGGT,0.22
18,AAGAGCACGTGTCGGT,-0.11
19,AGTTGCACGTGCAAGT,-0.07
20,GGCGGCACGTGTATGG,0.06
21,GATGGCACGTGGTTCG,-0.14
22,TGTTTCACGTGCCTGG,0.22
23,AGCTTCACGTGCGGTG,0.16
24,ACTTACACGTGAGGTT,0.3
25,TTACTCACGTGGGTTG,0.06
26,TGGGTCACGTGCAGGG,0.09

row,Sequence,relative binding free energy [kcal/mol]
1,TATTTCACGTGCTTTT,0.23
2,TTCTACACGTGAGTTG,0.33
3,ATTGGCACGTGGGCGT,-0.29
4,TAATGCACGTGAGTCG,0.28
5,TTAGTCACGTGGGTTG,0.02
6,AAAGGCACGTGTTTGC,-0.07
7,AGACGCACGTGTAGTG,-0.07
8,TTAAGCACGTGTTGCA,-0.2
9,GGTAGCACGTGAAGGT,0.25
10,GTTACCACGTGGGATG,-0.17
11,GGGGGCACGTGGGTCG,-0.15
12,TGATACACGTGGAGGC,0.06
13,GATTACACGTGGTACG,0.19
14,AGCTTCACGTGGTTCG,0.25
15,AGTTGCACGTGTAGTA,0.07
16,TGCTTCACGTGGTTGA,0.37
17,GATCGCACGTGTTGGG,-0.02
18,TTAAACACGTGGGAGA,-0.08
19,AGGCACACGTGTTCGT,0.19
20,GTTTACACGTGTAGTG,0.23
21,CTGGACACGTGGGATG,-0.1
22,CGTTCCACGTGGTTGT,-0.03
23,CTGTGCACGTGTTGGT,0.01
24,GTTAACACGTGGGTAT,0.09
25,TCTGGCACGTGTTTAA,-0.06
26,GTGGTCACGTGGACTG,0.04

row,Sequence,relative binding free energy [kcal/mol]
1,AGTTTCACGTGCTATT,0.21
2,TAATTCACGTGGACGG,0.22
3,CTAGTCACGTGTTGTT,0.07
4,CGGTACACGTGCTGGT,-0.05
5,TGTAACACGTGATTTG,0.19
6,TGCTGCACGTGGTATA,-0.17
7,GAGGACACGTGAAGGG,0.37
8,TATTGCACGTGAATAG,0.24
9,ATATACACGTGGGTTG,-0.07
10,GGTGGCACGTGATTGT,0.1
11,TTTTTCACGTGCAGTA,0.36
12,CGGTGCACGTGTGTGA,0.07
13,GGTTGCACGTGTCTAT,0.04
14,TAAGACACGTGTGCGT,-0.03
15,TAACGCACGTGCGTTT,0.12
16,AGGTCCACGTGTATTG,-0.19
17,TAGGTCACGTGCGCTT,0.02
18,CATGACACGTGTGTTG,-0.17
19,CTGTTCACGTGACGGG,0.39
20,CTGGCCACGTGGAGTG,-0.07
21,AGAATCACGTGTGGTT,0.3
22,GCAGGCACGTGAAGGT,0.23
23,GCGGTCACGTGTAGAA,0.3
24,GCGTGCACGTGAGCTG,0.07
25,TGGTACACGTGCGTGG,0.06
26,CTGTTCACGTGGGTGT,0.21

row,Sequence,relative binding free energy [kcal/mol]
1,GAATGCACGTGGTGAT,-0.02
2,GGATGCACGTGTATGC,0
3,TTATCCACGTGTGTGA,0.01
4,AAATACACGTGGCGGG,0.04
5,CGTGGCACGTGGCGAT,-0.16
6,TCATGCACGTGGGAAG,0.03
7,TTATCCACGTGGGTTA,-0.12
8,ACGCGCACGTGGGGGT,-0.36
9,TGGGACACGTGAGGAA,0.32
10,GCGAACACGTGATGGT,0.3
11,AGTTTCACGTGTATAT,0.18
12,CGTGGCACGTGCGAGA,-0.07
13,TATATCACGTGTTGGG,0.13
14,GTTCTCACGTGAGTAT,0.31
15,TGCGTCACGTGTTGAA,0.13
16,TTCAGCACGTGTGATA,0.07
17,TTTCGCACGTGGGGCA,-0.21
18,GTGATCACGTGGGTAC,0
19,GGTGCCACGTGTGTTG,-0.13
20,GCCCGCACGTGTGGGT,0.06
21,TATTACACGTGTGCGC,0.27
22,GAGGTCACGTGTTCTA,0.24
23,AGCGGCACGTGGGTTG,-0.2
24,CGTAGCACGTGACGGT,0.09
25,CCGGTCACGTGATTTT,0.39
26,ATTGACACGTGTTAAG,0.09

row,Sequence,relative binding free energy [kcal/mol]
1,TTGCGCACGTGTGCGT,-0.21
2,TCTAGCACGTGGTGGA,-0.12
3,AGCAGCACGTGTTGGT,-0.08
4,TGAATCACGTGTGAGC,0.3
5,AAACTCACGTGAAGGT,0.49
6,TTGAGCACGTGGCTTA,-0.22
7,GTGATCACGTGATAGG,0.21
8,GTGTTCACGTGCTTTT,0.25
9,TTGTTCACGTGTCGTC,0.1
10,AGCGTCACGTGATTTT,0.26
11,TGAAGCACGTGTGGGG,-0.03
12,GTTTTCACGTGGGGCT,0.29
13,TGTGGCACGTGACAGT,-0.02
14,GTGGACACGTGGCAGG,0.12
15,ACATGCACGTGGGGCG,-0.09
16,CGAGGCACGTGTGGCG,-0.18
17,GAAGGCACGTGTAATT,0.04
18,GGTATCACGTGGAGAG,0.22
19,GGCGGCACGTGTGGGC,0.13
20,TTATACACGTGTTCAT,-0.12
21,AGCGTCACGTGTTTGA,-0.01
22,GGTGGCACGTGGAAAT,-0.04
